# In PubChem BioAssay AID463173 (ICCB-Longwood Screening Facility, Harvard Medical School, 2010):
# The campaign covered roughly 52,000 compounds. About 1,700 (3.3%) were called active. Cut-off read from the data, not from the text of the source: active = survival mostly below about 52% (no sharp cut-off); inactive = mostly above about 56%. Some of the results follow.
# Test system: Wild type
# Assay: S. aureus survival, RN4220 and DeltatarO strains – OD600, teichoic acid synthesis inhibitors, primary screen (AID 463173)
# Conditions: S. aureus RN4220 wild type/DeltatarO growth, OD600, 18 h, active compounds read low, screened at 18.75 µg/mL (by protocol)
row,Structure (SMILES),survival
1,O=C(Nc1ccc(F)cc1F)C1CCCN1S(=O)(=O)c1cccc2nsnc12 (configuration not stated),inactive: 77%
2,COc1cc(CNCCSc2nnnn2C)ccc1OCc1c(F)cccc1Cl,inactive: 73%
3,CCOC(=O)c1[nH]c(C)c(C(=O)NCc2ccc(F)cc2)c1C,inactive: 90%
4,Cc1cccc(-c2nnc(SCCC(=O)O)o2)c1,inactive: 75%
5,COc1ccc(N2CCN(c3oc(/C=C/c4cccc(OC)c4)nc3C#N)CC2)cc1,inactive: 83%
6,CCc1ccc(CNC(=O)C2CCN(c3nnc(-n4c(C)ccc4C)s3)CC2)cc1,inactive: 70%
7,CCOc1ccc(CCNC(=O)c2cnc3c(-c4ccccc4)c(C)nn3c2C)cc1OCC,active: -3%
8,Cc1cccc(NC(=O)CN2C(=O)CCc3ccccc32)c1C,inactive: 115%
9,COc1ccccc1CNC(=O)C(C)n1c(=O)cc(C(F)(F)F)c2c(C)nn(C)c21 (configuration not stated),inactive: 78%
10,CC(C)c1ccc(OCC(=O)Nc2cc(-c3nc4ncccc4o3)ccc2Cl)cc1,inactive: 128%
11,O=[N+]([O-])c1ccc(C(c2sc3nc(-c4ccco4)nn3c2O)N2CCC3(CC2)OCCO3)cc1 (configuration not stated),inactive: 68%
12,COc1cc(C2CC(=O)Nc3cc4c(cc32)OCCO4)cc(OC)c1O (configuration not stated),inactive: 84%
13,CCCCN(CCCC)c1nc(-c2ccccc2)nc2ccccc12,active: -3%
14,CCCC1=C(C(=O)OCC)C(c2cccnc2)n2ncnc2N1 (configuration not stated),inactive: 109%
15,CCCCC(=O)Nc1ccc(OCc2cc(=O)n3ccc(C)cc3n2)cc1,inactive: 72%
16,CC1(c2ccccc2)CC(C)(C)N(C(=O)c2ccccc2Cl)c2ccccc21 (configuration not stated),active: -2%
17,COc1ccccc1C(=O)Nc1c(C(=O)Nc2ccc(C)cc2)oc2ccccc12,inactive: 75%
18,Cc1oc(-c2cccc(Cl)c2)nc1CSCC(=O)O,inactive: 84%
19,CCC(=O)Nc1ccc(C)cc1-c1nc2ccccc2n(Cc2ccccc2)c1=O,inactive: 86%
20,CCN(C(=O)c1cc2c(Cl)nc3ccc(C)cc3c2s1)c1cc(OC)ccc1OC,inactive: 83%
21,O=C(CN1CCOCC1)n1c2ccccc2c2ccccc21,inactive: 95%
22,Cn1c(C(=O)OC(C(=O)NCc2ccccc2)c2ccccc2)cc2sccc21 (configuration not stated),inactive: 105%
23,COc1ccc(NC(=O)C2CCCN2S(=O)(=O)c2ccc3c(c2)CCCC(=O)N3)cc1Cl (configuration not stated),inactive: 63%

row,Structure (SMILES),survival
1,O=C(CCS(=O)(=O)c1nc(-c2cccs2)cc(C(F)(F)F)n1)Nc1cccc(O)c1,inactive: 77%
2,COc1ccccc1CNC(=O)c1cc(-c2ccccc2)n[nH]1,inactive: 99%
3,Cc1ccc(N2C(=O)C(CC(=O)Nc3ccccc3)N(CCC3=CCCCC3)C2=O)cc1 (configuration not stated),inactive: 87%
4,O=C(NCCCN1CCN(c2cccc(Cl)c2)CC1)c1nnc(Cc2ccc(F)cc2Cl)o1,inactive: 45%
5,Cc1ccc2nc(NC(=O)CSc3ncc(C(=O)Nc4ccccc4)c(=O)n3C)sc2c1,inactive: 66%
6,CCc1ccc(S(=O)(=O)c2cnc(SCC(=O)Nc3ccc(OC)cc3OC)[nH]c2=O)cc1,inactive: 67%
7,CCOc1ccccc1NC(=O)CN1C(=O)C(=O)c2ccccc21,inactive: 115%
8,CCCc1cc(=O)oc2cc(C)c3c(-c4ccccc4)c(C)oc3c12,active: 0%
9,CC(C)NC(=O)c1sc2ncccc2c1-n1cccc1,inactive: 124%
10,CCOc1ccccc1N(CC)C(=O)c1cc2ccc3cccnc3c2[nH]1,inactive: 74%
11,Cn1c2ccc(F)cc2c2nnc(SCCN3CCCCC3)nc21,inactive: 140%
12,COCCn1c(COc2ccc(Cl)cc2)nnc1SCC(=O)OC,inactive: 100%
13,CCOc1ccc(CCNC(=O)c2sc3nc4n(c(=O)c3c2C)CCCC4)cc1,inactive: 75%
14,O=C(COc1ccccc1)Nc1ccccc1N1CCN(c2ccccc2)CC1,inactive: 95%
15,CCc1ccc(N=C2NC(=O)CS2)cc1,inactive: 116%
16,O=C(O)Cn1nc(N2CCN(c3ccccc3)CC2)ccc1=O,inactive: 77%
17,Cc1sc2c(c1C)c(=O)n(Cc1ccccc1)c(=O)n2CC(=O)Nc1cccc(Cl)c1,inactive: 91%
18,Cc1ccccc1C(=O)NCc1ccc2c(c1)CCN2C(=O)c1ccc(F)cc1,inactive: 63%
19,CC1CCC(NC(=O)CCc2cn(Cc3ccc(F)cc3)c3ccccc23)CC1 (configuration not stated),inactive: 90%
20,COc1ccc(NC(=O)c2nc(S(=O)(=O)Cc3ccc(C)cc3)ncc2Cl)cc1,inactive: 81%
21,CCOC(=O)Cn1cnc2c(cnn2-c2ccc(C)c(C)c2)c1=O,inactive: 72%
22,O=C(O)C1=CC(c2ccc(Br)cc2)n2ncnc2N1 (configuration not stated),inactive: 81%
23,Cc1nn2c(=O)cc(COC(=O)COc3ccccc3C)nc2s1,inactive: 70%

row,Structure (SMILES),survival
1,CCOc1ccc(C(=O)c2cn(CC(=O)Nc3ccc(C)c(C)c3)c3ccc(OCC)cc3c2=O)cc1,inactive: 78%
2,CCS(=O)(=O)c1nc(S(=O)(=O)c2ccc(C)cc2)c(NCc2ccccc2Cl)s1,inactive: 92%
3,CCOC(=O)CSc1ncnc2c1c(-c1ccccc1)cn2-c1ccc(OC)cc1,inactive: 75%
4,COc1ccc(N2CC(NC(=O)c3ccc(S(=O)(=O)N4CCOCC4)cc3)CC2=O)cc1 (configuration not stated),inactive: 82%
5,COc1cc2c(cc1OC)C(COc1ccc(C(C)C)cc1)N(C(=O)COc1ccccc1)CC2 (configuration not stated),inactive: 75%
6,COc1ccc(OCC(=O)N2CCN(C(=O)c3ccc(OC)cc3)CC2)cc1,inactive: 85%
7,O=C(/C=C/c1ccco1)Nc1ccc(-c2cc3ccccc3oc2=O)cc1,inactive: 106%
8,COc1ccc(NC(=O)CC2C(=O)N(c3ccc(C)cc3)C(=O)N2C2CCCC2)cc1 (configuration not stated),inactive: 121%
9,CCOc1ccc(Nc2nc(Nc3ccc(OCC)cc3)nc(N3CCOCC3)n2)cc1,inactive: 82%
10,COc1ccc(CCNC(=O)CCCn2c(=O)c3cccn3c3ccc(F)cc32)cc1OC,inactive: 63%
11,Cc1cc(C)nc(/N=C(/N)N2CCCCC2)n1,inactive: 103%
12,CC(NC(=O)c1cc2ccccn2n1)c1ccccc1 (configuration not stated),inactive: 83%
13,COC(=O)CN1C(=O)C(C)(C)c2cc(S(=O)(=O)Nc3ccc(C(C)C)cc3)ccc21,inactive: 55%
14,Cc1ccc(C)c(CN2C(=O)C(O)(c3c[nH]c4ccccc34)c3ccccc32)c1 (configuration not stated),inactive: 116%
15,Cc1cn2c(=O)cc(COC(=O)C(C)Oc3ccccc3)nc2s1 (configuration not stated),inactive: 55%
16,COC(=O)c1ccc(Cl)cc1NC(=O)N1CCC(CN2CCC(C)CC2)CC1,inactive: 84%
17,CCc1cccc(NC(=O)c2coc(=O)c3ccccc23)c1,inactive: 65%
18,COc1cccc(NC(=O)c2oc3ccccc3c2NC(=O)Cc2cccc(C)c2)c1,inactive: 63%
19,CCc1ccc(-n2nc(CO)c(C(=O)NCCCCc3ccccc3)n2)cc1,inactive: 85%
20,O=C(NCc1ccc(Cl)cc1)c1cc(-c2ccc(F)cc2)on1,inactive: 70%
21,Cc1ccccc1OCC(=O)N(Cc1ccc(C(C)C)cc1)C1CCS(=O)(=O)C1 (configuration not stated),inactive: 72%
22,Cc1ccc(S(=O)(=O)c2nc(-c3ccccc3)oc2SCC(=O)NC2CCCCC2)cc1,inactive: 161%
23,O=C(Nc1ccc(F)c(Cl)c1)C1CCCN1S(=O)(=O)c1ccc(F)cc1 (configuration not stated),inactive: 94%

row,Structure (SMILES),survival
1,COc1cccc(C2Nc3ccccc3-c3nnc(SCc4ccccc4)nc3O2)c1OC (configuration not stated),inactive: 127%
2,COc1ccc(NC(=O)C(CC(C)C)NS(=O)(=O)c2ccc3c(c2)oc(=O)n3C)cc1Cl (configuration not stated),inactive: 136%
3,CCOc1ccc(NC(=O)Cn2c(=O)n(Cc3nc(-c4ccccc4)no3)c(=O)c3ccccc32)cc1,inactive: 82%
4,CCOC(=O)C1=C(CS(=O)(=O)c2ccc(C)c(C)c2)NC(=O)NC1c1ccccc1OCC (configuration not stated),inactive: 88%
5,COc1ccc(N(CC(=O)N2CCN(c3cccc(OC)c3)CC2)S(=O)(=O)c2c(C)noc2C)cc1,inactive: 75%
6,O=C(Cn1c(=O)ccc2cc(S(=O)(=O)N3CCCC3)ccc21)NCc1ccc(F)cc1,inactive: 94%
7,COc1ccc(CCNC(=O)CSCc2nc(-c3ccc(OC)c(OC)c3)oc2C)cc1OC,inactive: 77%
8,COc1cc(OC)c(NC(=O)c2ccc3c(Cl)c4c(nc3c2)CCCC4)cc1Cl,inactive: 86%
9,Cc1nn(-c2ccccc2)c2sc(C(=O)N3CCOCC3)cc12,inactive: 120%
10,CC1CCCN(C(=O)Cn2c(=O)n(CC3CCC(C(=O)NC(C)C)CC3)c(=O)c3sccc32)C1 (configuration not stated),inactive: 128%
11,Cn1c(-n2cccc2)c(-c2c(-c3ccc(F)cc3)[nH]c3c2c(=O)[nH]c(=O)n3C)c(=O)[nH]c1=O,inactive: 83%
12,Nc1nc(SC#CC(F)(F)F)ns1,inactive: 38%
13,O=C1CN(c2ccccc2)C(=S)N1C(=O)c1ccccc1,inactive: 107%
14,COCCNc1ccc(-c2nc(-c3cccc(C)c3)no2)cc1[N+](=O)[O-],inactive: 86%
15,CN1C(=O)c2ccccc2Sc2ccc(NC(=O)COc3ccc(Cl)cc3)cc21,inactive: 65%
16,COc1ccc(-n2ncc3c2ncn2nc(-c4ccc(Cl)cc4Cl)nc32)cc1,inactive: 92%
17,COC(=O)c1ccc(OC2OCCOC2Oc2ccc(C(=O)OC)cc2)cc1 (configuration not stated),inactive: 112%
18,Cn1c(SCCC(=O)O)nc2ccccc21,inactive: 110%
19,CCNC(=S)N1CCN(C(=O)c2ccco2)CC1,inactive: 102%
20,COc1ccc(-c2nnc(SCc3nnc(-c4ccccc4)o3)o2)cc1OC,inactive: 106%
21,COc1cccc(OC)c1Cn1nnc2c(=O)[nH]c(C3CCN(C(=O)c4ccccc4)CC3)nc21,inactive: 76%
22,CSc1ccc(CCNC(=O)c2ccc3c(c2)nc2n3CCOC2)cc1,inactive: 55%
23,CCOC(=O)c1c(NC(=O)c2nc(SC)ncc2Cl)sc(C)c1C,inactive: 88%
